Results as given in PubChem BioAssay (NCATS).
“And” between values parts separate entries of the source, which are not always exact repeats. Identical values can stand only once. The inconclusive results got no clear call from the source; some entries with a clear call stand among them for comparison. Potencies of inconclusive entries are left out as doubtful fits. The source made the active and inactive calls. Calls follow the shape of the dose curve; as a rule, active = well fitted inhibition curve with a large enough effect in the signal ratio, with a control signal flat (not every such curve was filed as active); inconclusive = small, poorly fitted or top-dose-only effect, or effect the other way, or a change in a side signal; inactive = flat fitted curve, though single readings scatter; the % refers to the signal ratio.
Tags tell the direction and shape of the fitted curve or compound fluorescence and quenching.

These compounds were tested against Peroxisome proliferator-activated receptor gamma (Homo sapiens) (UniProt P37231) (assay: qHTS assay for small molecule antagonists of peroxisome proliferator-activated receptor gamma signaling (AID 588537; as to activity, negative = inhibition: % of control where 0% means no effect)). Details: HEK293 PPARg-UAS-bla, beta-lactamase ratio, antagonist mode; activity, negative = inhibition: at 76.8 µM (top of the series).
Excerpt: NIH Chemical Genomics Center [NCGC]
U.S. Environmental Protection Agency [EPA]
National Institutes of Environmental Health Sciences [NIEHS]
National Toxicology Program [NTP]
The Peroxisome proliferator-activated receptors (PPARs) are lipid-activated transcription factors of the nuclear receptor superfamily with three distinct subtypes namely PPAR alpha, PPAR delta (also called PPAR beta) and PPAR gamma. All these subtypes heterodimerizes with Retinoid X receptor (RXR) and these heterodimers regulate transcription of various genes. PPAR-gamma (glitazone receptor) ligands have been used in the treatment of type 2 diabetes and dyslipidaemia. It is involved in the regulation of glucose and lipid metabolism. PPAR-gamma activates certain genes like Paraoxonase 1 which is responsible for hydrolyzing organophosphates. PPAR-gamma ligands may also be therapeutically important in the treatment of coronary artery disease, obesity and cancer and atherosclerosis.
NCGC Assay Protocol Summary
Using a beta-lactamase reporter-gene under control of Peroxisome Proliferator-Activated-gamma (PPAR-gamma) response element, a cell-based assay [GeneBLAzer PPAR-gamma-UAS-bla assay developed by Invitrogen] was used to measure PPAR-gamma ligands signaling. GeneBLAzer PPAR-gamma-UAS-bla-HEK293 cells were used with assay medium containing 1% charcoal/dextran treated FBS. The assay was performed in clear bottom black Greiner 1536-well plates. Library compounds were measured for their ability to inhibit the reporter gene activity. Compounds were screened in a titration series in 1536-well format. The fluorescence intensity (405 nm excitation, 460/530 nm emission) was measured using an EnVision plate reader. Data was normalized relative to Rosiglitazone control (50 nM, 100%), and DMSO only wells (basal, 0%). Concentration-response titration points for each compound were fitted to the Hill equation yielding concentrations of half-maximal inhibition (IC50) and maximal response (efficacy) values.
qHTS protocol for PPAR-gamma beta-lactamase assay in antagonist mode
[Step] [Parameter] [Value] [Description]
1. Reagent; 5 uL; 3000 cells/well
2. Incubation; 37 C for 6-6.5 hrs
4. Controls (GW9662, PPAR-gamma antagonist); 23 nL,
5. Agonist (Stimulator); 1uL; Rosiglitazone at 50 nM (final) concentration
6. Incubation; 37 C for 16 hrs
7. Detection reagent; 1 uL of CCF4-dye
8. Incubation; RT for 2 hrs
9. Detection; Fluorescence; Envision plate reader
With C=CC(=O)OC the “activity, negative = inhibition” value was inactive: -13.1%.
Nc1ccccc1-c1ccccc1 was tested, and the activity, negative = inhibition was inconclusive: -21.2%.
In the case of O=[N+]([O-])c1cc(C(F)(F)F)c(Cl)c([N+](=O)[O-])c1Nc1ncc(C(F)(F)F)cc1Cl, the activity, negative = inhibition is reported as inconclusive: -139%.
O=C(NC(=O)c1c(F)cccc1F)Nc1ccc(OC(F)(F)C(F)OC(F)(F)F)c(Cl)c1 (stereo not given) was tested, and the activity, negative = inhibition was inconclusive: -0.435%.
With CN(C)c1ccc(N=Nc2ccccc2)cc1 the activity, negative = inhibition was inconclusive: -26.6%.
In the case of CC1(C)[C@H](C(=O)O[C@H](C#N)c2cccc(Oc3ccccc3)c2)[C@@H]1/C=C(\Cl)C(F)(F)F, the Potency is reported as inconclusive [inhibitor, partial curve].
With c1cc2c3c(cccc3c1)CC2 the “activity, negative = inhibition” value was inactive: 8.99%.
For Nc1ccc(Cl)c(Cl)c1, the Potency was inconclusive [inhibitor, full curve].
For BrCC(Br)(Br)Br, the activity, negative = inhibition was inconclusive: 7.38%.
With C[C@H]1[C@H](c2ccc(Cl)cc2)SC(=O)N1C(=O)NC1CCCCC1 the activity, negative = inhibition was inconclusive: -40%.
For CC1(C(=O)Nc2ccc(O)c(Cl)c2Cl)CCCCC1, the activity, negative = inhibition was inconclusive: 0.578%.
CC(C)(C)C(=O)[C@@H](Oc1ccc(Cl)cc1)n1cncn1 was tested, and the “activity, negative = inhibition” value was inactive: -4.78%.
In the case of CCOP(=S)(OCC)Oc1nc(Cl)c(Cl)cc1Cl, the Potency is reported as inconclusive [inhibitor, single point] and the activity, negative = inhibition is reported as inconclusive: -25.6%.
COc1ccc(C=O)cc1 was tested, and the Potency was inconclusive [activator, single point].
With Cc1ccc2c(C)cccc2c1 the “activity, negative = inhibition” value was inactive: 4.41%.
Oc1cc(Cl)ccc1Cl was tested, and the activity, negative = inhibition was inconclusive: 6.52%.
For CCCCC(C#N)(Cn1cncn1)c1ccc(Cl)cc1 (stereo not given), the activity, negative = inhibition was inconclusive: -4.98% and inconclusive: -16.3%.
In the case of O=[N+]([O-])c1c(Cl)c(Cl)c(Cl)c(Cl)c1Cl, the Potency is reported as inconclusive [inhibitor, partial curve] and the activity, negative = inhibition is reported as inconclusive: -24.9%.
For COC(=O)c1c(C(F)F)nc(C(F)(F)F)c(C2=NCCS2)c1CC(C)C, the activity, negative = inhibition was inconclusive: 7.15%.
In the case of CC(C)Oc1cc(-n2nc(C(C)(C)C)oc2=O)c(Cl)cc1Cl, the activity, negative = inhibition is reported as inconclusive: -38.7%.
For CC(C)OC(=O)Nc1ccccc1, the “activity, negative = inhibition” value was inactive: 3.07%.
In the case of c1ccc(OCC2CO2)cc1 (stereo not given), the activity, negative = inhibition is reported as inconclusive: 4.67%.
With COP(=O)(OC)Oc1ccc([N+](=O)[O-])cc1 the Potency was inconclusive [inhibitor, partial curve].
CC(c1ccc(O)cc1)(c1ccc(O)cc1)c1ccc(O)cc1 was tested, and the Potency was inconclusive [inhibitor, partial curve].
With CCOC(=O)COc1cc(-c2nn(C)c(OC(F)F)c2Cl)c(F)cc1Cl the activity, negative = inhibition was inconclusive: -25.9%.
With CC(C)(C)OOC(=O)c1ccccc1 the activity, negative = inhibition was inconclusive: 7.04% and inconclusive: 6.15%.
In the case of FC(F)C(F)(F)OCC(Cn1cncn1)c1ccc(Cl)cc1Cl (stereo not given), the activity, negative = inhibition is reported as inconclusive: -0.407%.
[O-][Cl+]O was tested, and the Potency was inconclusive [activator, partial curve, poor fit].
In the case of CC(Cl)(Cl)Cl, the activity, negative = inhibition is reported as inconclusive: 10.1%.
O=P(Oc1ccccc1)(Oc1ccccc1)Oc1ccccc1 was tested, and the Potency was inconclusive [inhibitor, partial curve].
CCOC1Oc2ccc(OS(C)(=O)=O)cc2C1(C)C (stereo not given) was tested, and the “activity, negative = inhibition” value was inactive: 7.31%.
O=[N+]([O-])c1cccc2ccccc12 was tested, and the activity, negative = inhibition was inconclusive: 3.8%.
Clc1ccc(C(Cl)(Cl)Cl)cc1 was tested, and the activity, negative = inhibition was inconclusive: -0.697%.
With CCNc1nc(Cl)nc(NC(C)C)n1 the activity, negative = inhibition was inconclusive: -0.965%.
For CC(Cl)Cl, the activity, negative = inhibition was inconclusive: 8.14%.

Same assay, conditions: HEK293 PPARg-UAS-bla, beta-lactamase ratio, antagonist mode; at 76.8 µM (top of the series)
For CCOP(=S)(OCC)Oc1nc(Cl)c(Cl)cc1Cl, the activity, negative = inhibition was inactive: -0.612% and inactive: -7.76%.
With O=[N+]([O-])c1cccc2ccccc12 the activity, negative = inhibition was inactive: -2.53%.
With CCNc1nc(Cl)nc(NC(C)C)n1 the activity, negative = inhibition was inactive: -4.44%.
